In all, about 44,000 compounds went through this assay and about 340 (0.77%) were called active. The shares of active, inactive and inconclusive entries below differ from those in the screen. Calls come from the whole dose curve; as a rule, active = well fitted inhibition curve with a large enough effect; inconclusive = small, poorly fitted or top-dose-only effect; inactive = flat fitted curve, though single readings scatter. No potency is given beside an inconclusive call; the fits are too rough.
test: Acumen qHTS Assay for Inhibitors of the mTORC1 Signaling Pathway in MEF (Tsc2-/-, p53-/-) Cells: Sytravon; conditions: phospho-rpS6 immunofluorescence/PI, 24 h; series mostly up to 38.3 µM; note: nearly all actives have a fitted effect of over 50% in size
How it was run: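 Read-out: phospho-S6 Alexa-488 intensity over PI intensity per well, scored as % active cells using thresholds from rapamycin (7.5 nM) and DMSO controls. Tsc2-/-, p53-/- MEFs exposed to compound for 24 h; PI cell count recorded as viability.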
Potency is the fitted concentration of half-maximal effect; tags give direction and shape of the fitted curve.

| Structure (SMILES) | Potency |
| --- | --- |
| CC(=O)c1cccc(Nc2nc(-c3cccc(C)c3)nc3ccccc23)c1 | inconclusive [falling, single point] |
| COc1cccc(NC(=O)CCN2CCN(c3ccccc3)CC2)c1 | inconclusive [falling, partial curve, poor fit] |
| COc1ccc(N2CCN(c3c4c(nc5nncn35)CCC4)CC2)cc1 | inconclusive [falling, single point] |
| CCc1ccccc1NC(=O)CSc1ncc(S(=O)(=O)c2ccccc2)c(N)n1 | inactive |
| O=C(NCCCN1CCN(c2cccc(Cl)c2)CC1)Nc1ccccc1C(F)(F)F | inactive |
| CC(C)(C)c1ccc(Oc2nc3ccccn3c(=O)c2/C=C(\C#N)c2nc3ccccc3[nH]2)cc1 | inconclusive [falling, partial curve] |
| O=C(CCC(=O)N1CC2CCCN2c2ccccc21)NCc1ccccc1 (centres undefined) | inconclusive [falling, single point] |
| CCC(=O)N1CCCc2cc(S(=O)(=O)N3CCC(C(=O)Nc4ccc(F)c(F)c4)CC3)ccc21 | inconclusive [falling, partial curve, poor fit] |
| COc1ccc(N2CC(c3nc(-c4cc(OC)c(OC)c(OC)c4)no3)CC2=O)cc1Cl (centres undefined) | inconclusive [falling, partial curve, poor fit] |
| Cc1cc(C)c2c(=O)c3c(oc2c1)C(=O)N(Cc1ccc(F)cc1)C3c1cccc(O)c1 (centres undefined) | inconclusive [falling, single point] |
| O=C(NCCSCc1c(F)cccc1Cl)C1CCN(S(=O)(=O)Cc2ccccc2)CC1 | inconclusive [falling, partial curve, poor fit] |
| Cc1ccc(Cn2ccn(CC(=O)Nc3ccccc3C(F)(F)F)c(=O)c2=O)cc1 | inconclusive [falling, single point] |
| CCOc1ccccc1NC(=O)Cn1c(=O)n(CCCC(=O)NCCOC)c(=O)c2cc(OC)c(OC)cc21 | inactive |
| CSc1ncc(C(=O)NCc2ccccc2)c(-c2ccccc2)n1 | inactive |
| CCOc1ccc(CCNCc2c(C(=O)O)n(Cc3ccc(C)cc3)c3cc(OC)ccc23)cc1 | active: 11.7 µM |
| O=S(=O)(c1ccccc1F)N1CCC(Oc2ccc(-n3cnnn3)cc2)CC1 | inconclusive [falling, single point] |
| COc1ccc(NC(=O)CSc2c3c(nc4ccccc24)CCC3)c(OC)c1 | inconclusive [falling, partial curve] |
| COc1cccc(Nc2sc(C(=O)c3ccc(F)cc3)c(N)c2C(=O)NCc2ccc(C)cc2)c1 | inconclusive [falling, single point] |
| COc1cc(CNc2ccc3c(c2)ncn3C(C)C)cc(OC)c1OC | inconclusive [falling, partial curve, poor fit] |
| Cc1ccc2c(c1)C(=O)C(=O)N2Cc1ccc(OC(C)C)cc1 | inconclusive [falling, partial curve, poor fit] |
| CCN(CC)CCn1c2c(c(SCC(=O)Nc3cccc(C(F)(F)F)c3)nc1=O)CCC2 | inactive |
| CC(CNC(=O)Cn1c(-c2cccs2)cc2ccccc21)c1ccccc1 (centres undefined) | inconclusive [falling, partial curve, poor fit] |

| Structure (SMILES) | Potency |
| --- | --- |
| Cc1ccc(Cl)cc1N1CCN(CCCNC(=O)c2nnc(Cc3cccc(Cl)c3)o2)CC1 | inconclusive [falling, single point] |
| COc1cccc(NC(=O)CSc2nnc(-c3cccs3)o2)c1 | inactive |
| COc1ccc(NC(=O)CN2C(=O)COc3ccc(S(=O)(=O)N4CCCCC4)cc32)cc1Cl | inconclusive [falling, partial curve, poor fit] |
| CCC1CCCCN1CCCNC(=O)c1ccc2c(c1)N(Cc1ccc(Cl)cc1)C(=O)c1ccccc1S2(=O)=O (centres undefined) | inconclusive [falling, single point] |
| Cc1ccc(C)c(Cn2c(=O)n(CCCCCC(=O)NCc3ccc4c(c3)OCO4)c(=O)c3sccc32)c1 | inconclusive [falling, single point] |
| CCc1nn(Cc2cccc(F)c2)c(=O)c2cc3cc(C)ccc3n12 | inactive |
| CCOC(=O)CSc1nc(-c2ccccc2)cc(C(F)(F)F)c1C#N | inconclusive [falling, single point] |
| O=C(Nc1cccc2cccnc12)c1cccc2ccccc12 | inactive |
| O=S(=O)(c1ccc(Br)cc1)c1nnn2c1nc(Nc1cccc(C(F)(F)F)c1)c1sccc12 | inactive |
| CCN(CC)S(=O)(=O)c1cc(-c2nnc(Nc3ccc(OC)c(C(N)=O)c3)c3ccccc23)ccc1C | inactive |
| Cc1ccc(Nc2c(-c3cc(Br)ccc3F)nc3cc(C)ccn23)cc1 | inconclusive [falling, partial curve, poor fit] |
| CCC1CCc2nc3sc(C(=O)Nc4ccc(F)c(Cl)c4)c(N)c3cc2C1 (centres undefined) | inconclusive [falling, single point] |
| COc1ccccc1C(=O)OCc1cc(=O)n2nc(C3CC3)sc2n1 | inconclusive [falling, single point] |
| CCC1CN(C(=O)N2CCC(C(=O)NCCN(CC)CC)CC2)c2ccccc2O1 (centres undefined) | inconclusive [falling, single point] |
| COc1ccc(CCNC(=O)c2c(C)nn(-c3ccc(F)cc3)c2-n2cccc2)cc1OC | inconclusive [falling, partial curve, poor fit] |
| CCOc1ccc(-n2c(-c3ccccc3)c(C)n3c4c(=O)n(C)c(=O)n(C)c4nc23)cc1 | inconclusive [falling, single point] |
| COc1ccccc1Cn1ccn(Cc2c(F)cccc2Cl)c(=O)c1=O | inconclusive [falling, partial curve, poor fit] |
| CCOC(=O)c1c(-c2ccccc2)csc1NC(=O)c1nc(S(=O)(=O)CC)ncc1Cl | inconclusive [falling, single point] |
| Cc1noc(/C=C/N(C)C)c1S(=O)(=O)N1CCCC(C(=O)Nc2ccc(F)cc2F)C1 (centres undefined) | active: 18.5 µM |
| Cc1ccc(CNS(=O)(=O)c2cc(C(=O)Nc3cccc(C(F)(F)F)c3)ccc2F)cc1 | inconclusive [falling, partial curve] |
| CCOC(=O)c1ccc(N2C(=O)c3n[nH]c(-c4cccs4)c3C2c2ccc(C(C)C)cc2)cc1 (centres undefined) | inconclusive [falling, single point] |
| COc1ccc(-c2ccc(CNc3ccc4[nH]c(=O)[nH]c4c3)o2)cc1Cl | inconclusive [falling, single point] |

| Structure (SMILES) | Potency |
| --- | --- |
| CCc1ccc(Oc2nc3c(C)cccn3c(=O)c2/C=C(\C#N)c2nc3ccccc3[nH]2)cc1 | inconclusive [falling, full curve] |
| CCOc1ccccc1Nc1nc(-c2cccc(Cl)c2)c2c(n1)-c1ccccc1OC2 | active: 2.93 µM |
| CCc1nnc(SCC(=O)N(C)c2ccccc2)c2cc3sccc3n12 | inactive |
| COc1ccc(NC(=O)c2ccc3c(=O)n4nc(Nc5cc(C)ccc5C)sc4nc3c2)cc1 | inconclusive [falling, partial curve] |
| O=S(=O)(NCC(c1ccco1)S(=O)(=O)c1cccs1)c1ccc(F)c(C(F)(F)F)c1 (centres undefined) | inactive |
| Cc1ccc(CNC(=O)c2nc(SCc3ccc(C)cc3)ncc2Cl)cc1 | inactive |
| CCc1ccccc1NC(=O)Cn1c(=O)c2cccn2c2ccc(F)cc21 | inactive |
| CCc1ccccc1NC(=O)Nc1cc(C(=O)NCc2ccc(C(C)C)cc2)ccc1N1CCCC1 | inactive |
| COc1ccccc1NC(=O)c1oc2ccccc2c1NC(=O)c1c(F)cccc1F | inactive |
| COc1cccc(-c2ccc3c(N)c(C(=O)Nc4ccc(Cl)cc4F)sc3n2)c1 | inconclusive [falling, single point] |
| Cc1cccc(C(=O)Nc2c(-c3ccc(F)cc3)nc3ccccn23)c1 | inconclusive [falling, single point] |
| Cc1nnc(N2CCCC(C(=O)Nc3ccccc3C(F)(F)F)C2)c2nn(-c3ccccc3)c(C)c12 (centres undefined) | inactive |
| CCN1C(=O)c2ccccc2S(=O)c2ccc(C(=O)N3CCN(c4cccc(Cl)c4)CC3)cc21 (centres undefined) | inactive |
| CCOc1ccc(C2c3[nH]c4ccccc4c3CCN2C(=O)CCC2CCCC2)cc1 (centres undefined) | inconclusive [falling, single point] |
| Fc1ccc(-n2ncc3c(NCCCc4ccccc4)ncnc32)cc1 | inconclusive [falling, partial curve, poor fit] |
| COc1ccccc1NC(=O)C1=C(C)Nc2nc(SCc3ccccc3)nn2C1c1cccs1 (centres undefined) | inconclusive [falling, partial curve, poor fit] |
| O=C(C1CC1)N1CCc2cc(Br)cc(S(=O)(=O)Nc3ccc(C(F)(F)F)cc3)c21 | inconclusive [falling, partial curve, poor fit] |
| CCCC(=O)Nc1nnc(S(=O)(=O)N(C)c2ccccc2)s1 | inconclusive [falling, partial curve, poor fit] |
| COc1ccccc1CCNC(=O)C1CCN(c2nc3ccccc3nc2C(F)(F)F)CC1 | inactive |
| CCOC(=O)N1CCN(CCC(=O)Nc2cc(C)ccc2C)CC1 | inconclusive [falling, single point] |
